Assay results from the supplement of paper PMC4967469.

Compound: O=C1NC(=NCc2cccs2)S/C1=C\c1ccc2ncccc2c1 [RO-3306]
Assay: Viability of human cancer cell lines after 72 h of drug (GDSC screen)
Conditions: top dose 5 µM; top dose inferred
Procedure: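 Human cancer cell lines in 384-well plates, medium with 10% serum, drug for 72 h over a 256-fold dose range (nine 2-fold or five 4-fold steps up to the top dose). Adherent lines were fixed and stained with the nucleic acid dye Syto60, suspension lines read with resazurin; signal relative to control wells, capped at 0 and 100%. One two-parameter sigmoid per drug and line, fitted in a mixed model over all curves with the slope shared within a line.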

Cell Line | AUC | IC50
MHH-NB-11 (neuroblastoma, adherent) | 0.985 | > 5 µM
MHH-PREB-1 (B-cell leukaemia, suspension) | 0.981 | > 5 µM
MIA-PaCa-2 (pancreas, adherent) | 0.894 | > 5 µM
MKN1 (stomach, adherent) | 0.949 | > 5 µM
MKN7 (stomach, adherent) | 0.964 | > 5 µM
MKN28 (stomach, adherent) | 0.978 | > 5 µM
ML-2 (acute myeloid leukaemia, suspension) | 0.986 | > 5 µM
MLMA (hairy cell leukaemia, semi-adherent) | 0.953 | > 5 µM
MM1S (myeloma, suspension) | 0.968 | > 5 µM
MMAC-SF (melanoma, adherent) | 0.934 | > 5 µM
MN-60 (B-cell leukaemia, suspension) | 0.984 | > 5 µM
MOG-G-CCM (glioma, adherent) | 0.962 | > 5 µM
MOG-G-UVW (glioma, adherent) | 0.869 | 4.41 µM
MOLM-13 (acute myeloid leukaemia, suspension) | 0.957 | > 5 µM
MOLM-16 (acute myeloid leukaemia, suspension) | 0.873 | 3.83 µM
MOLP-8 (myeloma, suspension) | 0.971 | > 5 µM
MOLT-4 (lymphoblastic leukaemia, suspension) | 0.963 | > 5 µM
MOLT-13 (T-cell lymphoblastic leukaemia, suspension) | 0.975 | > 5 µM
MOLT-16 (T-cell lymphoblastic leukaemia, suspension) | 0.966 | > 5 µM
MONO-MAC-6 (acute myeloid leukaemia, suspension) | 0.979 | > 5 µM
MPP-89 (mesothelioma, adherent) | 0.887 | > 5 µM

Cell Line | AUC | IC50
MRK-nu-1 (breast, suspension) | 0.978 | > 5 µM
MS751 (cervix, adherent) | 0.941 | > 5 µM
MS-1 (small cell lung carcinoma, suspension) | 0.991 | > 5 µM
MSTO-211H (mesothelioma, adherent) | 0.988 | > 5 µM
MV-4-11 (leukaemia, suspension) | 0.826 | 2.32 µM
MY-M12 (leukaemia, suspension) | 0.981 | > 5 µM
MZ1-PC (pancreas, adherent) | 0.962 | > 5 µM
MZ2-MEL (melanoma, adherent) | 0.849 | 4.78 µM
MZ7-mel (melanoma, adherent) | 0.987 | > 5 µM
Mo-T (hairy cell leukaemia, suspension) | 0.967 | > 5 µM
NALM-6 (B-cell leukaemia, suspension) | 0.985 | > 5 µM
NAMALWA (Burkitt lymphoma, suspension) | 0.986 | > 5 µM
NB1 (neuroblastoma, semi-adherent) | 0.982 | > 5 µM
NB5 (neuroblastoma, adherent) | 0.986 | > 5 µM
NB6 (neuroblastoma, adherent) | 0.937 | > 5 µM
NB7 (neuroblastoma, adherent) | 0.986 | > 5 µM
NB10 (neuroblastoma, adherent) | 0.963 | > 5 µM
NB12 (neuroblastoma, adherent) | 0.979 | > 5 µM
NB13 (neuroblastoma, adherent) | 0.893 | 4.75 µM
NB14 (neuroblastoma, adherent) | 0.794 | 2.15 µM

The IC50 comes from the fitted curve, where viability falls to half of the control; a fit beyond the top or the lowest dose is shown as a bound at that dose. The AUC spans the tested range (256-fold, ending at the top dose) of the same fit; it is 1 without any effect and falls as sensitivity rises. Where the top dose is marked as inferred, it comes from the curve model; the source does not state it.
